In all, about 16,000 sequences were measured (“Z-score”: median about -0.37, highest 2% from about 3.2 on). Some of the results follow.
Tested on: RBM10 RRM1-ZnF (GST-tagged construct)
Assay: RNAcompete 7-mer binding Z-score; higher = stronger binding preference
Procedure, shortened: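 A one-sided Z-score for enrichment, taken across the probes containing each heptamer motif, was assigned to every such motif. The RNA came from a designed pool of 241 399 sequences up to 41 nt (1.5 nmol), bound by 20 pmol of GST-tagged RBM10 constructs in 1 ml Hepes pH 7.8 buffer with glutathione Sepharose beads for 30 min at 4°C. Four 2-min washes at 4°C preceded identification of bound RNA by microarray hybridisation.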

Sequence	RNAcompete 7-mer binding Z-score
GUACCGA	-0.425
UACGAAG	-0.136
AAAUUGG	1.02
GCUCGAU	-0.402
CGUCAGU	-0.357
GGAAUUC	0.121
ACCCUGU	-0.759
UCCGAGA	-0.672
AAGAGGC	0.654
GUGACCC	0.0333
ACACCGC	-0.545
UACAACU	-0.594
UUUUAGA	-0.561
AAUGCAC	-0.272
GUGGGUU	3.11
CCGCUUA	-0.922
CCCCCCU	-0.279
UAAUUUC	-0.88
AUAUGUC	-0.461
UUUAUGA	-0.529
GACGAAC	-0.181
CACAUCA	-0.487
GUUAUGU	0.0463

Sequence	RNAcompete 7-mer binding Z-score
ACGCUUA	-0.704
AUUCAAC	-0.766
GUUCUGG	0.0918
UCUAUAC	-0.821
CUGCUUC	-0.72
CGGGGCU	1.71
CACCGGU	0.196
AGCCUAG	-0.47
AGCAACU	-0.376
GUCCUGC	-0.594
CGCUCAG	-0.47
CAGUCGU	-0.522
CUGGGAU	1.11
GGCAAAG	1.36
GAGGAGC	1.8
AGGCUAU	-0.262
UCAACAU	-0.506
AUUGGAG	2.25
GCAGACA	0.056
GUUCUCC	-0.587
UUGUACG	-0.279
CGCAAAG	-0.214
GGUUUUG	2.03

Sequence	RNAcompete 7-mer binding Z-score
AACUUGU	-0.597
CACUUUU	-0.85
UAGGUGU	1.7
GUCACCA	-0.493
AAGCCCA	-0.681
CAGAUAC	-0.584
CGAACGC	-0.34
GGUCAGG	2.79
CCUAACG	-0.707
GCAGGUU	1.38
CCUGCGG	0.27
GCUUAUA	-0.513
AGGACAG	1.09
CGUAGUA	-0.0739
CGGAGAC	0.508
UAUUCGC	-0.753
UUCUGAC	-0.789
CUGAACU	-0.623
CGUGGGG	3.65
UAGGGUU	3.33
AGGCACA	-0.11
ACGGCCG	-0.461
AGAAAUA	-0.288

Sequence	RNAcompete 7-mer binding Z-score
CCGACCA	-0.867
GUACAUU	-0.344
GACCGUU	-0.902
UGACGAU	0.0203
AAGUGUA	0.774
UUCAAAA	-0.691
CACCCCG	0.387
AUGCACG	0.0235
GAUGAGG	3.56
AUUGCCU	-0.857
CCAAGAA	-0.444
GAUAAAA	0.0203
UCGCGGU	-0.188
CGCGGGA	1.05
GCUAUAA	-0.409
GUGCGUC	0.0365
UCUAUGG	-0.383
AUCUUAC	-0.717
ACACCCA	-0.73
CGAGACG	0.199
AGUCUAU	-0.379
UGCCAAU	-0.681
AGGUUGA	1.64

— the supplement of paper PMC5499739
